Here are results for 25 sequences from the supplement of paper PMC11417369.

± gives the standard deviation of the averaged measurements. The list shows a part of the results.

This experiment relates to PfAP2-G AP2 domain (GST-tagged). The experiment can be described thus: gcPBM binding intensity (ln(normalized median fluorescence intensity)); higher = stronger DNA binding. In short, it runs like this:
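GST-tagged P. falciparum DNA-binding domains produced in E. coli were incubated for 1 h on an Agilent 4 × 180k array of primer-extended double-stranded 36-bp intergenic genomic probes with negative controls. Binding intensity is the highest Masliner-normalised natural-log median intensity across replicate spots of either probe orientation, with bound protein detected by Alexa488 anti-GST antibody at 488 nm.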
Turning to “TATATAAACCCGTACACACACATATATGTATATATA [CACACA_site3507]”, the “gcPBM binding intensity (ln)” value was determined as 11.6 ± 0.95.

As for “AATGTATATATGTAATGTACATATATAATGTATATA [XGTACX_site6510]”, the “gcPBM binding intensity (ln)” value turned out to be 10.8 ± 0.4.

In the case of “TGTAGTTTGTCCCATGCATGTTCCATTAAAATATAT [TGCATGCA_site854]”, the “gcPBM binding intensity (ln)” value worked out at 10.7 ± 0.4.

As to “TTAACGTAAAATATAGTGCATAGTATCATATTGATA [GTGCAC_site9527]”, the “gcPBM binding intensity (ln)” value came to 9.85 ± 0.15.

Take “CAATCAAAGAAACACACACACACCTAAACATAAAAG [CACACA_site2756]”: the “gcPBM binding intensity (ln)” value came out at 10.2 ± 0.24.

Consider “AAATGTGTTTATTTAACACACAAAAGAAAAAATATA [CACACA_site6993]”, for which the “gcPBM binding intensity (ln)” value came out at 10.2 ± 0.26.

Turning to “AATGTAAAATATATGTGTACATATGTTTATATATAT [XGTACX_site2216]”, the “gcPBM binding intensity (ln)” value was 11.5 ± 1.1.

Turning to “TATAACAAGTAATGTTGTACATTGTATTATGTAATA [XGTACX_site6372]”, the “gcPBM binding intensity (ln)” value turned out to be 10.9 ± 0.64.

As to “GTGTGTTGTATATACTGTACATACTTTATATATAGT [XGTACX_site1876]”, the “gcPBM binding intensity (ln)” value was 11.3 ± 0.63.

Consider “TAAGTTCCCTTTGAATGTACATATAATGAAAAGAAA [XGTACX_site826]”, for which the “gcPBM binding intensity (ln)” value came to 11.1 ± 0.58.

For “TTCCCTTTTGTAAAATGTACATATATATTTAAACAA [XGTACX_site3263]”, the “gcPBM binding intensity (ln)” value came to 11.2 ± 0.54.

On to “TTTTTATTAAAATGTATTTTAGGAAAAAACAAAAAA [XGTACX_negctrl_site437]”, for which the “gcPBM binding intensity (ln)” value is 10.1 ± 0.31.

For “AAAAAACTTTTAAGCACACACATAGATAATATAGAT [CACACA_site6835]”, the “gcPBM binding intensity (ln)” value is 10.085 ± 0.007.

With “TTTTTTTTTTTTGTCACACATATTTGTATTAATCAT [CACACA_site5235]”, the “gcPBM binding intensity (ln)” value was determined as 10.1 ± 0.46.

For the sequence “CAACATTTGAAACACACACACATACAAACAAACAAA [CACACA_site3306]”, the “gcPBM binding intensity (ln)” value amounted to 10.4 ± 0.29.

As to “ATATAAATATAGCATACACACAAAAAAATAAAATAA [CACACA_site2333]”, the “gcPBM binding intensity (ln)” value amounted to 9.895 ± 0.035.

“AATATTAACAATCGCACACATATTATTTTTCCAAAA [CACACA_site4982]”: the “gcPBM binding intensity (ln)” value turned out to be 10.2 ± 0.25.

“TGAAATGGAAACAACTGTACAAAATAAATATGATAT [XGTACX_site1311]”: the “gcPBM binding intensity (ln)” value was 10.8 ± 0.4.

Consider ATACTTTTATTTTTGGTGCATATATCATGTAGACGT, for which the “gcPBM binding intensity (ln)” value stood at 10.3 ± 0.16.

Take “AATTTATTATTTGTATGTACTCATATGATTCACTTA [XGTACX_site2797]”: the “gcPBM binding intensity (ln)” value was 11.3 ± 0.86.

With “TATGGAAGAAAATATACACACAAAAAAAAAAAATGT [CACACA_site1486]”, the “gcPBM binding intensity (ln)” value was 10.1 ± 0.071.

On to “TATTTTTATACAATTTAACACGGGTTATAAAATGTA [CACACA_negctrl_site566]”, for which the “gcPBM binding intensity (ln)” value is 9.99 ± 0.15.

As for “TGTATATCATATATTTGTACTCAATTAATATAAACA [XGTACX_site3970]”, the “gcPBM binding intensity (ln)” value was 11.2 ± 0.98.

“AAATGAAATAAATGTAGTACACATATACAATATATA [XGTACX_site6951]”: the “gcPBM binding intensity (ln)” value amounted to 11.7 ± 1.1.

Regarding “TATATATATTTATAATGTACATATTTTTTTTTATTT [XGTACX_site4761]”, the “gcPBM binding intensity (ln)” value was 11.3 ± 0.77.
